Test system: IFN-β promoter

Molecule | IFN-β promoter activation (antiviral activity) with N-RIG-I | IFN-β promoter activation in the presence of TRAF3, TBK1 or IRF7 | IFN-β promoter activity mediated by N-RIG-I, MDA5, poly(I:C) or MAVS
EPRS: glutamyl-prolyl-tRNA synthetase protein, 1512 aa, SEQ ID NO: 63; expressed from plasmid or purified | induced marked activity of IFN-β promoter | no substantial activation of the IFN-β promoter | increased RIG-I-, MDA5-, poly(I:C)-, and MAVS-mediated activity of the IFNB promoter in a dose-dependent manner
aa 168-196: EPRS L1 linker region between GST-like domain and ERS (DVSTTKARVAPEKKQDVGKFVELPGAEMG; UniProt P07814 168-196, looked up, fragment) | have antiviral effects |  | 
EPRS (aa 1-196): N-terminal EPRS fragment containing GST-like domain and linker region L1 (protein) MATLSLTVNSGDPPLGALLAVEHVKDDVSISVEEGKENILHVSENVIFTDVNSILRYLARVATTAGLYGSNLMEHTEIDHWLEFSATKLSSCDSFTSTINELNHCLSLRTYLVGNSLSLADLCVWATLKGNAAWQEQLKQKKAPVHVKRWFGFLEAQQAFQSVGTKWDVSTTKARVAPEKKQDVGKFVELPGAEMG | induced IFN-β promoter activation comparable with that induced by full-length EPRS |  | 
EPRS (aa 1-168): EPRS GST-like domain alone (protein, left off: small tags and cut ends) MATLSLTVNSGDPPLGALLAVEHVKDDVSISVEEGKENILHVSENVIFTDVNSILRYLARVATTAGLYGSNLMEHTEIDHWLEFSATKLSSCDSFTSTINELNHCLSLRTYLVGNSLSLADLCVWATLKGNAAWQEQLKQKKAPVHVKRWFGFLEAQQAFQSVGTKWD | did not induce antiviral activity |  | 
aa 168-269: L1 region-containing EPRS fragment (protein, UniProt P07814 168-269, looked up, fragment) DVSTTKARVAPEKKQDVGKFVELPGAEMGKVTVRFPPEASGYLHIGHAKAALLNQHYQVNFKGKLIMRFDDTNPEKEKEDFEKVILEDVAMLHIKPDQFTYT | have antiviral effects |  | 

— patent publication US11173192B2 (priority 2016, dated 2021)
